Assay results taken from the supplement of paper PMC10369915.
Some of the results follow. Rule as the data show it: active = 3.2 or more and inactive = the rest. Most of these values are background signal.

B1: PDGFRB_Y716_N718Y_YF (peptide)
chain: PSAELYSFALP
B2: PDHA1_Y118 (peptide)
chain: HLITAYRAHGF
B3: PDHA1_Y118_H113D (peptide)
chain: DLITAYRAHGF
B4: PDHA1_Y227 (peptide)
chain: CENNRYGMGTS
B5: PDHA1_Y243_YF (peptide)
chain: ASTDFYKRGDF
B6: PDHA1_Y289_H292L_YF (peptide)
chain: LQTFRYHGLSM
B7: PDHA1_Y289_YF (peptide)
chain: LQTFRYHGHSM
B8: PDHA1_Y301 (peptide)
chain: DPGVSYRTREE
B9: PDHA1_Y301_R302H (peptide)
chain: DPGVSYHTREE
B10: PDK1_Y136 (peptide)
chain: DAKAIYDFTDT
B11: PDK1_Y136_A134T (peptide)
chain: DAKTIYDFTDT
B12: PDK3_Y337 (peptide)
chain: RLYARYFQGDL
B13: PDK3_Y337_Y334S (peptide)
chain: RLSARYFQGDL
B14: PDPK1_Y9_V12M (peptide)
chain: TTSQLYDAMPI
B15: PDPR_Y104 (peptide)
chain: QKMADYSNKLY
B16: PDPR_Y109 (peptide)
chain: YSNKLYYQLEQ
B17: PDPR_Y109_Y109H_YF (peptide)
chain: FSNKLHFQLEQ
B18: PEAK1_Y616 (peptide)
chain: HDEPTYARSSK
B19: PEAR1_Y890_R885H (peptide)
chain: HLDRSYSYSYS

target: SHP2 C-SH2 domain E139D; assay: enrichment score (SH2-bound / input frequency) (ratio); bacterial display of known human phosphotyrosine sites (pTyr-Var adds point mutants) read by sequencing; higher = stronger binding; tyrosines were phosphorylated by kinases first; conditions: peptide library: pTyr-Var
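Also: displayed peptides selected on beads carrying the immobilized SH2 domain, with library peptides lacking any tyrosine serving as negative controls.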

Enrichment score, inactive:
B1 0.851
B2 0.834
B3 0.724
B4 0.779
B5 0.47
B6 0.989
B7 1.23
B8 0.451
B9 0.605
B10 0.816
B11 0.691
B12 0.675
B13 0.725
B14 0.778
B15 0.827
B16 0.891
B17 1.33
B18 0.333
B19 0.589

target: SHP2 C-SH2 domain wild-type; assay: as above; conditions: peptide library: pTyr-Var

Enrichment score, inactive:
B1 0.789
B2 0.71
B3 0.678
B4 0.964
B5 0.51
B6 0.787
B7 1.04
B8 0.24
B9 0.442
B10 0.654
B11 0.859
B12 0.579
B13 0.851
B14 0.654
B15 0.695
B16 1.01
B17 1.16
B18 0.322
B19 0.636

target: SHP2 N-SH2 domain L43F; assay: as above; conditions: peptide library: pTyr-Var

Enrichment score, inactive:
B1 0.74
B2 0.565
B3 0.622
B4 0.791
B5 0.473
B6 0.722
B7 1.09
B8 0.421
B9 0.389
B10 1.59
B11 0.75
B12 0.587
B13 0.795
B14 0.941
B15 0.686
B16 0.673
B17 1.08
B18 0.308
B19 0.545

target: SHP2 N-SH2 domain T42A; assay: as above; conditions: peptide library: pTyr-Var

Enrichment score, inactive:
B1 0.7
B2 0.538
B3 0.637
B4 0.691
B5 0.46
B6 0.736
B7 0.85
B8 0.345
B9 0.51
B10 0.658
B11 0.651
B12 0.479
B13 0.587
B14 0.537
B15 0.669
B16 0.86
B17 1.16
B18 0.295
B19 0.572

target: SHP2 N-SH2 domain T52S; assay: as above; conditions: peptide library: pTyr-Var

Enrichment score, inactive:
B1 0.844
B2 0.572
B3 0.665
B4 0.704
B5 0.507
B6 0.828
B7 1.27
B8 0.368
B9 0.698
B10 0.656
B11 0.598
B12 0.507
B13 0.571
B14 0.574
B15 0.823
B16 0.941
B17 0.776
B18 0.308
B19 0.446

target: SHP2 N-SH2 domain wild-type; assay: as above; conditions: peptide library: pTyr-Var

Enrichment score, inactive:
B1 0.702
B2 0.796
B3 0.71
B4 1.09
B5 0.527
B6 0.929
B7 0.992
B8 0.514
B9 0.462
B10 0.795
B11 0.731
B12 0.517
B13 0.741
B14 0.917
B15 0.584
B16 0.821
B17 0.931
B18 0.339
B19 0.642
